Laboratory results from EP4755403A1, “ANTI-PSMA ANTIBODY-DRUG CONJUGATE AND PHARMACEUTICAL USE THEREOF” (priority 2023, dated 2025).

What was measured:
[1] = system: PC-3 cells; experiment: In vitro cell binding assay of ADCs; parameters: species or system human
Description: In this assay, fluorescence signals of the antibody on the cell surface were detected, and the binding of the antibody was evaluated according to the intensity of the fluorescence signals. […] The cells were incubated with a FITC-labeled goat anti-human IgG (H + L) secondary antibody (Jackson Immuno Research, 109-095-003) at 4 °C for 30 min, and then excess antibodies were washed off. The fluorescence signals on the cell surface were read using BD CantoII. Table 11. In vitro cell binding activity of ADCs (EC50, nM)

[2] = system: 22RV1 cells; experiment: Cell killing activity of ADC molecules (CellTiter-Glo); type: cell-based, human; settings: 5 days
Description: (§1) LNCaP (ATCC, CRL-1740), 22RV1 (ATCC, CRL-2505), and PC-3 (ATCC, CRL-1435) cells were digested with trypsin, neutralized with a fresh medium, centrifuged at 1000 rpm, and then resuspended in a medium. After the cells were counted, the density of the cell suspensions was adjusted to […], and the cells were plated onto a 96-well plate. The adjusted cell suspension (135 µL) was added to each well with […]. Only the middle 60 wells were used for plating, and six wells in the twelfth column were taken as pure medium controls without cells. An equal volume of PBS was added to the other wells. The cells were incubated at 37 °C with 5% CO2 for 16 h.
(§2) Then 20 µL of the dilution was added to the cell plate described above, and the plate was incubated in an incubator (37 °C, 5% CO2) for 5 days. […] Subsequently, 9-point serial dilutions at a 1:3 ratio were performed with PBS. Then 1 µL of the dilution was added to 20 µL of RPMI-1640, and the mixture was transferred to a 96-well cell culture plate. The plate was incubated in an incubator (37 °C, 5% CO2) for 5 days. In the 96-well cell culture plate, 80 µL of the CellTiter-Glo reagent was added to each well, and the plate was left to stand in the dark at room temperature for 10-15 min. The chemiluminescence signal values were read on Victor3, and the data were processed using GraphPad software.
(§3) On the fifth day, the culture plate was taken out and allowed to return to room temperature. The CellTiter-Glo assay solution (75 µL) was added to each well, and the plate was left to stand in the dark at room temperature for 10 min. A Backseal membrane was attached to the bottom of the cell culture plate. The plate was placed on a microplate reader Victor 3, and luminescence signal values were read. Curve fitting was performed according to the log values of concentrations of the test compounds to the corresponding signal values using Graphpad Prism software, and IC50 values were calculated. The maximum value of killing was defined as the maximum killing rate (Imax) of the compound. The killing rate was calculated as follows: [formula]

[3] = system: LNCaP cells; experiment: as above; type: cell-based, human; settings: 5 days
Description: as §1, §2, §3

[4] = system: PC-3 cells; experiment: as above; type: cell-based, human; settings: 5 days
Description: as §1, §2, §3

[5] = Single-dose pharmacokinetics of ADC molecules in cynomolgus monkeys; type: in vivo; settings: 10 mg/kg, i.v.
Description: Cynomolgus monkeys (Suzhou Guochen Biotechnology Co., Ltd.) were grouped with 3 cynomolgus monkeys for each ADC molecule. After the ADC molecule was injected intravenously at 10 mpk (n = 3 cynomolgus monkeys/group), sera were collected at 0.083 h, 1 h, 6 h, 12 h, 24 h, 48 h, 96 h, 168 h, 240 h, 336 h, 504 h, and 672 h for bioanalytical measurements. The cynomolgus monkey serum samples were determined using an HTRF method, and the quantitative analysis of the content of the test samples was performed by a four-parameter model curve of the standard substance. Pharmacokinetic parameters were analyzed using a standard non-compartmental model of WinNonlin software (6.1). Table 15. PK of ADC molecules in cynomolgus monkeys

B1: ADC-2 (conjugate)
heavy: EVKLVESGGGLVQPGGSLRLSCAASGFTFSDYYMAWVRQAPGKGLEWVANINYDGSSTYYLDSLKSRFTISRDNAKNSLYLQMNSLRAEDTAVYYCARGGDYWDAMDYWGQGTTVTVSS[sequence of human IgG1 constant region omitted]
light: DIQMTQSPSSLSASVGDRVTITCRASQDISKYLNWYQQKPGKAPKLLIYYTSSLHSGVPSRFSGSGSGTDYTLTISSLQPEDFATYYCQQGNRLPRTFGGGTKVEIKRTVAAPSVFIFPPSDEQLKSGTASVVCLLNNFYPREAKVQWKVDNALQSGNSQESVTEQDSKDSTYSLSSTLTLSKADYEKHKVYACEVTHQGLSSPVTKSFNRGEC
In vitro cell binding activity of ADCs (EC50) [1]: No binding
Imax (maximum killing rate) [2]: 98.03%
Imax (maximum killing rate) [3]: 94.91%
Imax (maximum killing rate) [4]: 90.73%
IC50 ([4]; read-out: IC50 (killing effect)): 0.119 µM
AUC 0-t Intact ADC ([5]; intact ADC): 19078 µg·h/mL
AUC 0-t Intact ADC/TAb ([5]; ratio): 102%
AUC 0-t TAb ([5]; total antibody): 18691 µg·h/mL
